In PubChem BioAssay (Tox21):
Inconclusive means that the source gave no clear call. Such entries were picked first, then a sample of the others. Where a call stands in place of a potency, no number is given. Where the call is inconclusive, the potency comes from a doubtful curve fit. Activity calls are given as the source filed them. Calls come from the whole dose curve; as a rule, active = well fitted inhibition curve with a large enough effect in the signal ratio in the repeat runs (not every such curve was filed as active); inconclusive = weak or mixed curves; inactive = flat fitted curve, though single readings scatter; the % refers to the signal ratio.

Molecular target: Progesterone receptor (Homo sapiens) (UniProt P06401)
Assay: qHTS assay to identify small molecule antagonists of the progesterone receptor (PR) signaling pathway (AID 1346795)
Conditions: PR-UAS-bla HEK293T, beta-lactamase FRET ratio, 16 h; activity change, negative = inhibition: at 92.4 µM (top of the series) unless noted
Procedure, shortened: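 PR-UAS-bla HEK293T cells with beta-lactamase reporter under UAS control, in 2% charcoal-stripped FBS, treated with compounds plus 1 nM promegestone (R5020, final) for 16 hr at 37C. Read-out: FRET beta-lactamase substrate fluorescence after 2 hr at room temperature.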
Potency is the fitted concentration of half-maximal effect; tags give direction and shape of the fitted curve.

Chain of UniProt P06401 (P06401 whole entry, looked up): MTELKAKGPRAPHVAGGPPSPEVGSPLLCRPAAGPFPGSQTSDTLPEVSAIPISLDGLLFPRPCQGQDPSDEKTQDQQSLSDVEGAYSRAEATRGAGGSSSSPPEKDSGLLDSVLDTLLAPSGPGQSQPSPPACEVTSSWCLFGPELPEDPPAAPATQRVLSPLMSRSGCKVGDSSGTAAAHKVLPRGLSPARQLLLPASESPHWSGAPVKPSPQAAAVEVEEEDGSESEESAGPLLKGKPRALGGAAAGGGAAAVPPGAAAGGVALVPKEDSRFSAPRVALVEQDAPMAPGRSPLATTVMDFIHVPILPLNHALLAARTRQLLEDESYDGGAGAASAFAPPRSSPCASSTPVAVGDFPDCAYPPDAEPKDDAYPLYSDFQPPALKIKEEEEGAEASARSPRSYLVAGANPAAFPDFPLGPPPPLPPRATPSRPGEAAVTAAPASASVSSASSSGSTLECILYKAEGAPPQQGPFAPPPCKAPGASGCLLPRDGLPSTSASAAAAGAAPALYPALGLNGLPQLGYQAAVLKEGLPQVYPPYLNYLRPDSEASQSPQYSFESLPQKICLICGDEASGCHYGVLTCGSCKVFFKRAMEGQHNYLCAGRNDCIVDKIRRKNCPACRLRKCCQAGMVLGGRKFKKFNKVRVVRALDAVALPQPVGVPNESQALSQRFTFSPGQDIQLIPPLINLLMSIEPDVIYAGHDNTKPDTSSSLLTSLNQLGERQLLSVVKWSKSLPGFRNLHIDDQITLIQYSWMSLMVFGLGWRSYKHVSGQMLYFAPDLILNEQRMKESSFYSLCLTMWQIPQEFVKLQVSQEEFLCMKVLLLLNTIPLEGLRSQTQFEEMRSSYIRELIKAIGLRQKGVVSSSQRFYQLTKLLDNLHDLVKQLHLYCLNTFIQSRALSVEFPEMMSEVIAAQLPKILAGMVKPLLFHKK

Row | SMILES | Potency | activity change, negative = inhibition
1 | C=CCCCCCCCCC(=O)OCC | inactive | 
2 | C/C=C1\[C@H]2C=C(C)C[C@]1(N)c1ccc(=O)[nH]c1C2 | inactive | 
3 | NC[C@H]1O[C@H](O[C@H]2[C@H](O)[C@@H](O[C@H]3O[C@H](CO)[C@@H](O)[C@H](N)[C@H]3O)[C@H](N)C[C@@H]2N)[C@H](O)[C@@H](O)[C@@H]1O |  | inconclusive: 14.9% [at 8.39 µM]
4 | OC[C@@H](O)C(O)[C@@H](O)CO (stereo partly specified) | inactive | 
5 | CC(C)C(=O)OCC(C)(C)C(O)C(C)C (stereo unspecified) |  | inconclusive: 3.99%
6 | Nc1nc(N)c(-c2ccccc2)s1 | inactive | 
7 | C=C(C)c1cccc(C(C)(C)N=C=O)c1 |  | inconclusive: -1.56%
8 | Cc1ccccc1C(=O)Nc1ccc(C(=O)N2CCCC(O)c3cc(Cl)ccc32)c(C)c1 (stereo unspecified) | inconclusive: 21.1 µM [falling, partial curve] | 
9 | O=C1CCC(=O)O1 | inactive | 
10 | OCc1ccccc1 |  | inconclusive: -8.83%
11 | CN(C)C(=O)Nc1ccc(Cl)c(Cl)c1 | inconclusive: 60.9 µM | 
12 | COc1ccccc1[N+](=O)[O-] | inactive | 
13 | CCC(CO)CO | inactive | 
14 | Fc1c(F)c(F)c(Br)c(F)c1F | inactive | 
15 | CC(C)(O)CCC(C)(C)O | inactive | 
16 | NCC(=O)CCC(=O)O | inactive | 
17 | CC(=O)N(c1onc(C)c1C)S(=O)(=O)c1ccc(N)cc1 | inactive | 
18 | O=C[O][Al]([O]C=O)[O]C=O | inactive | 
19 | CC1CCC(CO)CC1 (stereo unspecified) |  | inconclusive: 1.05%
20 | CCC(C)N (stereo unspecified) | inactive | 
21 | ClC(c1ccccc1)(c1ccccc1)c1ccccc1 | inconclusive: 24.3 µM [rising, partial curve] | 
